ChEMBL document CHEMBL4888484, “Replenishing the malaria drug discovery pipeline: Screening and hit evaluation of the MMV Hit Generation Library 1 (HGL1) against asexual blood stage Plasmodium falciparum ,using a nano luciferase reporter read-out” (2022)
Screen size: about 150,000 compounds; about 540 (0.36%) showed an effect of 50% or more. The list shows a part of the results.

Tested on: Plasmodium falciparum
Experiment: Primary screen in NF54 nanoGlo assay, in single point, at 2uM, 72h; a lower Z score goes with more inhibition
Type: functional, Erythrocyte
Settings: timepoint 72 hour

Row | Compound | % Inhibition [%] | Z score
1 | COc1ccc(CCS(=O)(=O)NC[C@@](O)(c2ccco2)C2CC2)cc1 | 3 | -0.5
2 | Cn1nncc1C1(O)CN(c2ccc3nccnc3n2)C1 | -7 | 1.1
3 | C[C@H]1CC(=O)Nc2ccccc2N1C(=O)c1cscn1 | 30 | -3.4
4 | CS(=O)(=O)[C@@H]1CCCC[C@H]1NC(=O)NC1CCCc2sccc21 (stereo not given in full) | 6 | -0.95
5 | CCOc1cc([C@H]2C(C(=O)NCc3ccccc3)=C(C)Nc3ncnn32)ccc1OCc1ccc(Cl)cc1Cl | -20 | 2.12
6 | O=C(CCOc1ccc(F)cc1Cl)N1CCNCC1 | -8 | 1.52
7 | N#Cc1ccc(OC2CCOCC2)cc1 | -17 | 2.09
8 | O=C(O)c1ccccc1CN1C[C@@H]2Oc3c(F)ccc(F)c3O[C@@H]2C1 | 3 | -0.58
9 | O=C(NC1C2Cc3ccccc3C21)N1CCCC(c2cn[nH]c2)C1 (stereo not given) | 0 | -0.06
10 | Cc1cccnc1[C@H](C)NC(=O)c1cc(Cl)c[nH]c1=O | -8 | 1.32
11 | O=C(CNC(=O)c1occc1Br)Nc1cn[nH]c1 | -9 | 1.19
12 | N/C(=N\O)[C@H]1CC(=O)N(Cc2ccc3c(c2)OCO3)C1 | -16 | 1.83
13 | COc1cccn(CC(=O)N2CCC[C@H](c3nc4ccccc4n3C)C2)c1=O | -10 | 1.62
14 | CC1CCC(O)C(C2CCCCN2C(=O)c2cc(Cl)cn2C)C1 (stereo not given) | -16 | 2.11
15 | COCCNC(N)=NC1CC(c2ccccc2)C1 (stereo not given) | 3 | -0.37
16 | O=C(NC[C@H]1CCCOC1)c1cccc(-c2ccc3c(c2)CCC3=O)c1 | -16 | 3.15
17 | COC1(C(F)(F)F)CN(C(=O)NCC(C)(C)c2cccnc2)C1 | -15 | 2.4
18 | Cc1cc(C(=O)NCCCn2ccnn2)c(=O)n(C)c1C | 1 | -0.11
19 | CS(=O)(=O)N1CCC(C(=O)Nc2ccccc2-c2ccccc2)CC1 | -14 | 1.8
20 | CCc1nnsc1C(=O)NCCOc1ccccc1 | -9 | 1.1
21 | Cn1cccc1CN(C(=O)COc1ccccc1F)C1CC1 | 3 | -0.56
22 | Clc1ccccc1CCn1nnnc1N1CCCOCC1 | -4 | 0.84
23 | Cn1nncc1C(=O)N1CC[C@@H]1Cc1ccccc1 | -11 | 2.15
24 | CC(C)(CNC1CCC(Oc2cnccn2)CC1)c1ccccc1 (stereo not given) | -7 | 0.99
25 | CC(C)[C@H](Cn1ccnn1)NS(=O)(=O)c1ccccc1C#N | 12 | -1.54
